Here are results for 50 sequences from the supplement of paper PMC12645437, “Orthogonal IMiD-Degron Pairs Induce Selective Protein Degradation in Cells” (ACS Chemical Biology, 2025).

The other results are listed elsewhere or left out.
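Also: jurkat cells carrying a lentiviral library of mutant zinc finger degrons fused to EGFP plus mCherry, mCherry+ cells FACS sorted, degron abundance counted by next-generation sequencing.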

The target in this assay is no compound (DMSO). The experiment in a line: log2 fold change of degron read counts, EGFP-low vs EGFP+ sorted cells; higher = lower degron-EGFP level without compound (poor expression or instability). Particulars: compound: DMSO control; 18 h.
Regarding FQCNQCGRFFTQKGNLLRHIKL, the “log2 fold change of degron read counts” value came out at 0.297. As for FSCNQCGHFFTQKGNLLRHIKL, the “log2 fold change of degron read counts” value was 0.613. The same measure for LLCPICGFHCTQKGNLLRHIKL: 1.16. The result for FKCPQCGAIFTQKGNLLRHIKL reads -1.37; that for FCCDQCGAKFTQKGNLLRHIKL, -1.93. For FGCDICGAHFTQKGNLLRHIKL, the “log2 fold change of degron read counts” value is -0.705.

For the sequence FECEICGAYFTQKGNLLRHIKL, the “log2 fold change of degron read counts” value was -0.802.

In the case of FSCNQCGHVFTQKGNLLRHIKL, the “log2 fold change of degron read counts” value worked out at 0.128. On to LLCEICGFGCTQKGNLLRHIKL, for which the “log2 fold change of degron read counts” value stood at 0.763. The same measure for FTCPICGAVFTQKGNLLRHIKL: -0.17. The same measure for FSCSVCGHMFTQKGNLLRHIKL: -0.0161.

On to FSCNQCGRRFTQKGNLLRHIKL, for which the “log2 fold change of degron read counts” value is 0.0733. The result for FYCNQCGRHFTQKGNLLRHIKL reads 0.591; that for FHCPICGAIFTQKGNLLRHIKL, 0.139; that for FNCPICGHSFTQKGNLLRHIKL, 0.043. The same measure for FHCNQCGAQFTQKGNLLRHIKL: -0.251; for FFCPICGADFTQKGNLLRHIKL: 0.0896. The result for FQCSVCGHCFTQKGNLLRHIKL reads -1.14. Consider FWCPICGAWFTQKGNLLRHIKL, for which the “log2 fold change of degron read counts” value is 1.88. The result for FLCEICGRYFTQKGNLLRHIKL reads -0.104; that for FQCDVCGALFTQKGNLLRHIKL, -0.877.

Take FGCDVCGAEFTQKGNLLRHIKL: the “log2 fold change of degron read counts” value was -2.27. As to LFCPICGFICTQKGNLLRHIKL, the “log2 fold change of degron read counts” value is 2.16. The result for FTCEQCGAVFTQKGNLLRHIKL reads -1.96; that for LSCPICGFCCTQKGNLLRHIKL, 0.764; that for FSCDQCGAKFTQKGNLLRHIKL, -2.3.

On to FQCNICGAYFTQKGNLLRHIKL, for which the “log2 fold change of degron read counts” value was -0.569.

For the sequence FKCNQCGRTFTQKGNLLRHIKL, the “log2 fold change of degron read counts” value was -1.31.

FKCDVCGAKFTQKGNLLRHIKL: the “log2 fold change of degron read counts” value is -2.51. The result for FLCNQCGHEFTQKGNLLRHIKL reads -0.174; that for FICDVCGAKFTQKGNLLRHIKL, -1.34; that for LYCPICGFLCTQKGNLLRHIKL, 1.53. In the case of FQCEQCGAQFTQKGNLLRHIKL, the “log2 fold change of degron read counts” value was -1.68. The same measure for FICPICGRWFTQKGNLLRHIKL: 0.807; for FFCPVCGALFTQKGNLLRHIKL: 0.33. For FMCPICGAWFTQKGNLLRHIKL, the “log2 fold change of degron read counts” value turned out to be 1.41. Consider FRCDVCGAGFTQKGNLLRHIKL, for which the “log2 fold change of degron read counts” value is -1.72. The same measure for FCCPICGASFTQKGNLLRHIKL: -0.247; for FSCPQCGAKFTQKGNLLRHIKL: -0.568; for LICNQCGFFCTQKGNLLRHIKL: 1.73. The result for FHCEICGHCFTQKGNLLRHIKL reads -1.16; that for FKCPICGAVFTQKGNLLRHIKL, -0.71. The result for LSCEICGFWCTQKGNLLRHIKL reads 0.991; that for FCCNVCGAVFTQKGNLLRHIKL, -0.355; that for LLCPICGFECTQKGNLLRHIKL, 0.526. With FKCEVCGAGFTQKGNLLRHIKL, the “log2 fold change of degron read counts” value is -1.57. Turning to FSCNVCGAIFTQKGNLLRHIKL, the “log2 fold change of degron read counts” value worked out at 0.035.

For FGCEICGRRFTQKGNLLRHIKL, the “log2 fold change of degron read counts” value was -0.511. FCCSVCGHAFTQKGNLLRHIKL: the “log2 fold change of degron read counts” value is -0.7. The same measure for FFCEICGAPFTQKGNLLRHIKL: -0.255.
